Source: PubChem BioAssay AID1508624 (National Center for Advancing Translational Sciences (NCATS), 2021)
Screen size: about 48,000 compounds; about 120 (0.25%) were called active. Inconclusive results (about 4%) are left out. Calls follow the shape of the dose curve; as a rule, active = well fitted activation curve with a large enough effect; inconclusive = small, poorly fitted or top-dose-only effect, or another doubt; inactive = no such curve, though single readings can be large or run the other way. The list shows a part of the results.

Assay: Primary qHTS for Identification of Small Molecule Activators of Huntingtin-Antisense Promoter Activity; also: nearly all actives have a fitted effect of over 55% in size
Conditions: HEK293 HTT-AS promoter firefly luciferase reporter (activity 0% = vehicle and -100% = no light), 24 h; series mostly up to 57.5 µM; activity change, positive = activation: at the top concentration
Summary of the method: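 Luminescence was read after Dual-Glo reagent and a 10 min room-temperature incubation. Values were normalized to vehicle (0% activity) and zero RLU (-100% activity). Reporter HEK293 cells had been exposed to compounds (up to 57.5 uM final) for 24 h.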

Row | Structure (SMILES) | activity change, positive = activation
1 | CCC(Sc1ncc(S(=O)(=O)c2ccc(Cl)cc2)c(=O)[nH]1)C(=O)Nc1ccc(OC)cc1 (stereo not drawn) | inactive: -8.57%
2 | Cc1ccc2[nH]c(=O)c3cc(C(=O)N(CCCOC(C)C)Cc4ccco4)sc3c2c1 | inactive: -48.9%
3 | COc1ccc(Cl)cc1NC(=O)CSc1nnc2[nH]c(=O)cc(-c3ccccc3)n12 | inactive: 14.6%
4 | COc1ccc(NC(=O)C2CCN(C(=O)c3sc4nc[nH]c(=O)c4c3C)CC2)cc1Cl | inactive: -0.244%
5 | CN(CC(=O)Nc1ccc(Br)cc1)S(=O)(=O)c1cccc2nsnc12 | inactive: -7.7%
6 | COc1ccccc1NC(=O)CSc1nc2c(oc3ccccc32)c(=O)n1-c1ccccc1F | inactive: -10.7%
7 | O=C(O)c1ccc(OCCN2CCCCC2)cc1 | inactive: 0.998%
8 | CN1C(=O)Cc2cc(S(=O)(=O)CCC(=O)N3CCN(c4ccc(Cl)cc4)CC3)ccc21 | inactive: -23.5%
9 | Cc1cc2oc(C(=O)N(Cc3ccc(N(C)C)cc3)CC3CCCO3)c(C)c2cc1Cl (stereo not drawn) | inactive: -2.25%
10 | COc1ccc(NC(=O)c2oc3ccccc3c2NC(=O)c2cc(C)cc(C)c2)c(OC)c1 | inactive: -1.27%
11 | CCOC(=O)C1CCN(c2nc3ccccc3nc2Cl)CC1 | inactive: -5.18%
12 | CCN(C(=O)CSc1nc2ccccc2n1Cc1ccccc1C#N)c1ccccc1 | inactive: -28.4%
13 | NC1(c2ccc(-c3nc4ccn5c(=O)[nH]nc5c4cc3-c3ccccc3)cc2)CCC1 | inactive
14 | Cc1ccc(-c2nc(S(=O)(=O)c3ccc(C)cc3)c(SCC(=O)c3ccccc3)o2)cc1 | inactive: 1.02%
15 | Cc1cccc(C)c1NC(=O)Cn1c(=O)n(Cc2ccccc2Cl)c(=O)c2cccnc21 | inactive: -6.59%
16 | COc1ccc(-n2nc(C(=O)Nc3ccc(C)cn3)c3c4ccccc4n(C)c3c2=O)cc1Cl | inactive: -9.16%
17 | CCOC(=O)c1ccc(NC(=O)CSc2nnc(-c3ccncc3)n2-c2ccccc2)cc1 | inactive: -9%
18 | Cc1ccc(NC(=O)NC(C)c2c(-n3cccc3)sc(C)c2C)cc1F (stereo not drawn) | inactive: -31.7%
19 | COc1cc(NC(=O)C2CCN(c3nnc(C)c4c(C)n(-c5ccccc5)nc34)CC2)cc(OC)c1 | inactive: -22%
20 | Cc1ccc2c(C)c(C(=O)NCC(c3ccc(Cl)cc3)N3CCOCC3)oc2c1 (stereo not drawn) | inactive: -20.6%
21 | Cc1ccc(-n2c(=O)[nH]c3cc(C(=O)NCCc4ccccc4)ccc3c2=O)cc1 | inactive: -21.6%
22 | CCOC(=O)c1ccccc1NC(=O)c1cnn(-c2ccc(OC)cc2)c1C1CCN(C(=O)OC(C)(C)C)CC1 | inactive: -0.493%
23 | Cc1ccc2c(c1)c(=O)c1ccccc1n2CCCC(=O)Nc1ccc(Cl)cc1C | inactive: -9.79%
24 | CCOc1ccc(CNC(=O)c2cnc3c(C)cccn3c2=O)cc1 | inactive: 0.436%

Row | Structure (SMILES) | activity change, positive = activation
25 | CCC(c1ccc(O)cc1)C(CC)c1ccc(O)cc1 (stereo not drawn) | inactive: -33.3%
26 | CCCc1nn2c(=O)cc(COC(=O)C3CCCCC3)nc2s1 | inactive: 0.586%
27 | Cc1ccc(NC(=O)CCCn2c(=O)c3cccn3c3ccccc32)cc1Cl | inactive: 10.2%
28 | COc1ccc(-c2nn(-c3ccc(F)cc3)c3c2cnc2ccc(F)cc23)cc1OC | inactive: -18.3%
29 | O=C1CN(C(=O)COc2ccccc2)C(c2ccc(F)cc2)c2cc(Br)ccc2N1 (stereo not drawn) | inactive: -27%
30 | COC(=O)c1cc2sc(Cl)cc2n1CC(=O)Nc1cc(OC)cc(OC)c1 | inactive: 7%
31 | COc1ccc(OCC(=O)Nc2ccc(Cl)c(-c3nc4ncccc4o3)c2)cc1 | inactive: 12.5%
32 | O=C(NCc1nc2ccccc2n1Cc1ccccc1Cl)c1ccccc1 | inactive: -20%
33 | COC(=O)c1ccccc1NC(=O)c1oc2ccc3c(c2c1C)C(=O)CC(C)(C)O3 | inactive: -12.7%
34 | COCCn1c(SCC(=O)c2c(C)[nH]c3ccccc23)nc2cc(C(=O)NC(C)C)ccc2c1=O | inactive: -14.4%
35 | CCOc1ccc(CCNC(=O)Cn2ccc3cc(S(=O)(=O)N4CCCCC4)ccc32)cc1 | inactive: -31.9%
36 | CCN(CCCNC(=O)c1cc(Nc2ccc(OC)cc2)nc2ccccc12)c1cccc(C)c1 | inactive: -10%
37 | COc1cccc(CNC(=O)c2ccc3c(c2)N(Cc2ccc(F)cc2Cl)C(=O)c2ccccc2S3)c1 | inactive: -21.8%
38 | Cc1ccccc1CN1C(=O)c2ccccc2Sc2ccc(C(=O)NCc3ccccc3)cc21 | inactive: -18.4%
39 | Cc1ccc(Cl)cc1NC(=O)Nc1cn(CC(C)C)c(=O)c2ccccc12 | inactive: -7.02%
40 | CCOc1ccccc1N(CC)C(=O)c1cc2c(=O)n(CC)c3ccccc3c2s1 | inactive: -48.2%
41 | CCOC(=O)c1noc2nc(C)n(CC(=O)Nc3ccc(Br)cc3C)c(=O)c12 | inactive: -0.532%
42 | COc1ccc(OC)c(-n2cnc3cc(C(=O)NCCc4ccccc4)ccc32)c1 | inactive: 8.12%
43 | CC1(CN2CCC(n3c(=O)[nH]c4ccccc43)CC2)OCc2ccccc2-n2cccc21 (stereo not drawn) | inactive
44 | Cc1cc(Nc2cccc(C(F)(F)F)c2)nc2ccc(NC(=O)c3cncc(Br)c3)cc12 | inactive: -72.3%
45 | Cc1ccc(CN(C(=O)c2ccc([N+](=O)[O-])cc2)c2ccccn2)cc1 | inactive: -25.9%
46 | NC(=O)c1noc([C@H](CCCC2CCCCC2)CC(=O)NO)n1 | inactive: 9.52%
47 | Cc1ccc(OCC(=O)Nc2ccccc2C(=O)OCc2cc(=O)n3c(C)csc3n2)cc1 | inactive: -30.9%
48 | CC(C)OC(=O)c1c(NC(=O)c2cc3nc(-c4ccccc4)cc(C(F)(F)F)n3n2)sc2c1CCCC2 | inactive: -18.8%
